Measurements reported in the supplement of paper PMC11417369.
± gives the standard deviation of the averaged measurements. The list shows a part of the results.

These sequences were tested on PfAP2-LT AP2 domain (GST-tagged) (assay: gcPBM binding intensity (ln(normalized median fluorescence intensity)); higher = stronger DNA binding).
Method in brief: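 Using an Agilent 4 × 180k array, primer-extended double-stranded 36-bp intergenic genomic probes and negative controls were exposed for 1 h to GST-fused P. falciparum DNA-binding domains expressed in E. coli. Binding was carried out in 1× PBS with 1% milk, 0.2 mg/ml BSA, 0.5% salmon testes DNA and 0.03% Triton X-100, and protein was detected with Alexa488 anti-GST antibody and a 488 nm scan. Binding intensity is the highest Masliner-normalised natural-log median intensity across replicate spots of either probe orientation.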
In the case of “AACAAAATAAAAAAAACATGCAAGAATTCTTATATG [TGCATGCA_site714]”, the “gcPBM binding intensity (ln)” value is reported as 8.82 ± 0.49. With “ATTTGTATTGTATATGCACACATAGAACACTTTTTT [CACACA_site9373]” the “gcPBM binding intensity (ln)” value was 9.18 ± 0.39. For “ATATATATAATATAATGTACATATATTTTATTTTTA [XGTACX_site3819]”, the “gcPBM binding intensity (ln)” value was 8.54 ± 0.4. For “AAAGCACCCAAGAATACACACAAATATTATAAAAAA [CACACA_site111]”, the “gcPBM binding intensity (ln)” value was 9.21 ± 0.44. “ATATATTAATTTAATTGTACGAATAAAAAAAAAAAA [XGTACX_site223]” was tested, and the “gcPBM binding intensity (ln)” value was 8.4 ± 0.38. With “TATATACATTTATGTACACACACATATATGTATATT [CACACA_site8971]” the “gcPBM binding intensity (ln)” value was 9.37 ± 0.3. “ACGTATTAGATAAATACACACACAAGCATATATTTT [CACACA_site9135]” was tested, and the “gcPBM binding intensity (ln)” value was 9.41 ± 0.3. “TAATGTATTATATTTAGTACATATAAAAATAATTTT [XGTACX_site6886]” was tested, and the “gcPBM binding intensity (ln)” value was 8.4 ± 0.4. In the case of “AGATTCAAAAATAAAACATGCAAAAATAAAACGTGC [TGCATGCA_site501]”, the “gcPBM binding intensity (ln)” value is reported as 9.03 ± 0.45. For “TAATAAATGGCTAGTTGTACAGAAATATAAATATTA [XGTACX_site4579]”, the “gcPBM binding intensity (ln)” value was 8.62 ± 0.46. For ATATATATTGTACTAGTGCATATATATACATATATT, the “gcPBM binding intensity (ln)” value was 8.98 ± 0.3. For “ATAAATAAAAACACAAAACAAAACAAAACAAAACAA [CACACA_negctrl_site1257]”, the “gcPBM binding intensity (ln)” value was 8.82 ± 0.4. For “TTTCATCTATATGAAACACACAAAGGAAAAAAAATT [CACACA_site7869]”, the “gcPBM binding intensity (ln)” value was 8.71 ± 0.35. In the case of “TAATACCATTGTCATGCATGCACATTATTACTCTAA [TGCATGCA_site160]”, the “gcPBM binding intensity (ln)” value is reported as 8.99 ± 0.35. For “TCGTAATTTTTTTTTATATATTAGGAATTTATAAAA [XGTACX_negctrl_site409]”, the “gcPBM binding intensity (ln)” value was 8.04 ± 0.42. For “ATATTATATTTCTTTTGTACATATTATATAATATAT [XGTACX_site7198]”, the “gcPBM binding intensity (ln)” value was 9.05 ± 0.36. For “TTTTTTTTGTGTATTTGTACATAATATATATATATA [XGTACX_site7092]”, the “gcPBM binding intensity (ln)” value was 8.88 ± 0.49. For “AAAATTGTTATTTTATGTACTTATATTTATTTATTT [XGTACX_site3478]”, the “gcPBM binding intensity (ln)” value was 8.77 ± 0.43. “AAAAGGTATGTTATACATAGATATGCACATATATGT [TGCATGCA_negctrl_site96]” was tested, and the “gcPBM binding intensity (ln)” value was 8.94 ± 0.45. For “GTAGGATTTTCTTTTGTGCGCAATATAAAAAGAAAA [GTGCAC_site9514]”, the “gcPBM binding intensity (ln)” value was 8.66 ± 0.43. With “ATTAATATAAAAAGGTAAATGGATGTAATATATATA [XGTACX_negctrl_site2]” the “gcPBM binding intensity (ln)” value was 8.76 ± 0.45. In the case of “TGAACACGCACAAATACACACAAAAAAAATAAATAA [CACACA_site6257]”, the “gcPBM binding intensity (ln)” value is reported as 9.31 ± 0.49. In the case of “CCATTAAGACACATTGCACACGTGCACCCATAGAAA [CACACA_site4388]”, the “gcPBM binding intensity (ln)” value is reported as 9.13 ± 0.35. With “AAAAAAAAATTAAAAACACACATATAAATAAATATA [CACACA_site6845]” the “gcPBM binding intensity (ln)” value was 8.76 ± 0.54. With “AACAAAATAGGGAACACACACATGTCAATATATAAA [CACACA_site2596]” the “gcPBM binding intensity (ln)” value was 9.43 ± 0.5. In the case of “AAAAAAAATTAATAGGGTACATGAAAAGTGGAATAT [XGTACX_site618]”, the “gcPBM binding intensity (ln)” value is reported as 9.03 ± 0.4. “CACATACACATACAAACACACATTAGATATAAATAT [CACACA_site6854]” was tested, and the “gcPBM binding intensity (ln)” value was 9.27 ± 0.47. “ATAGAAGAAATATGCACACATACATTGAAATGTTTT [CACACA_site321]” was tested, and the “gcPBM binding intensity (ln)” value was 8.99 ± 0.36. With “TTTTTATTTATTAATACACACACACCCACCCACAAA [CACACA_site7965]” the “gcPBM binding intensity (ln)” value was 9.805 ± 0.064. In the case of “AAAGAAAAAAATAATTGTACATTTATATTTAATTTA [XGTACX_site8003]”, the “gcPBM binding intensity (ln)” value is reported as 8.27 ± 0.47. For “TTTTTTTTTAAATAATGTACTTTTCATTATTTAGAT [XGTACX_site1706]”, the “gcPBM binding intensity (ln)” value was 8.54 ± 0.43. “TAATTTTATATATGCACACAAAATATGTTCATATAA [CACACA_site4076]” was tested, and the “gcPBM binding intensity (ln)” value was 8.72 ± 0.39. In the case of “TGAAAAATGTTGATGTGTACTTATATAGTGTGTTAA [XGTACX_site2100]”, the “gcPBM binding intensity (ln)” value is reported as 8.81 ± 0.45. For “TTTAACATAAATTAAACACACAATATAATACATTAA [CACACA_site1237]”, the “gcPBM binding intensity (ln)” value was 8.76 ± 0.4. In the case of “CATTTTATCAAAAGTGGTACAACCCTTTCAAAAAAT [XGTACX_site341]”, the “gcPBM binding intensity (ln)” value is reported as 8.38 ± 0.39. In the case of “TTTTTTTTTTTTTTTTGTACGTAATATATGATTAAT [XGTACX_site6876]”, the “gcPBM binding intensity (ln)” value is reported as 8.54 ± 0.35. With “AAATTACTTTCACAGTGTACTTGGAAAAAAAAAAGA [XGTACX_site1046]” the “gcPBM binding intensity (ln)” value was 8.57 ± 0.4. For “AGATATAATAAATATACACACATATATATATATATA [CACACA_site962]”, the “gcPBM binding intensity (ln)” value was 9.62 ± 0.26. “ATATATATTTTTATTTGTACATAATTTTTTTTGTGA [XGTACX_site6378]” was tested, and the “gcPBM binding intensity (ln)” value was 8.66 ± 0.5. “ATAAAATTGTTTAAATGTACATATGAACAGTCAGTA [XGTACX_site5140]” was tested, and the “gcPBM binding intensity (ln)” value was 8.78 ± 0.51. In the case of “TTTTTTTTTTTTTGCACACACATATATAGATATATA [CACACA_site7784]”, the “gcPBM binding intensity (ln)” value is reported as 9.41 ± 0.34. In the case of “ATATATGTAATAAATAGTACACACACACATATATAT [XGTACX_site2817]”, the “gcPBM binding intensity (ln)” value is reported as 9.94 ± 0.19. With “ATATATATTTAAATGTGTACTCATTTATTTTATGTC [XGTACX_site4984]” the “gcPBM binding intensity (ln)” value was 9 ± 0.37. For “TATATATATAAACACACACACACATATATATATATT [CACACA_site8814]”, the “gcPBM binding intensity (ln)” value was 9.84 ± 0.014. “ATAGTATAACAGCAATGTACACATATTTGTGTATAT [XGTACX_site7899]” was tested, and the “gcPBM binding intensity (ln)” value was 9.08 ± 0.37. In the case of “TGATATTTATAATAAATATTATAATAAAATCAAACA [XGTACX_negctrl_site219]”, the “gcPBM binding intensity (ln)” value is reported as 8.41 ± 0.34. For “TTTTTTTTTTTTGTCACACATATATTTGTATTTATA [CACACA_site5234]”, the “gcPBM binding intensity (ln)” value was 8.8 ± 0.49. For “TGTAGTCTGGAGAAACGTACATAGTATCTGGTAACC [XGTACX_site4939]”, the “gcPBM binding intensity (ln)” value was 8.94 ± 0.31. “TATATATATATATATACACACATATATATATTTATA [CACACA_site627]” was tested, and the “gcPBM binding intensity (ln)” value was 9.66 ± 0.31. For “ATAACATTCATATTCACACAAAAATATACTACATAG [CACACA_site4529]”, the “gcPBM binding intensity (ln)” value was 8.81 ± 0.42. In the case of “TATTTATTTTTTTGCACACATATTTTACATTTTAAT [CACACA_site3181]”, the “gcPBM binding intensity (ln)” value is reported as 9.54 ± 0.47. For “ATTGAAAATTGTTGCACACATAATAATTAAATATAT [CACACA_site1857]”, the “gcPBM binding intensity (ln)” value was 8.93 ± 0.4. “ATATAAAAAGTGTATCGTACATTTACTTATTTTATA [XGTACX_site6249]” was tested, and the “gcPBM binding intensity (ln)” value was 8.65 ± 0.42. In the case of “ATAAAAAAAGGACACACACACATATATATATATATA [CACACA_site5662]”, the “gcPBM binding intensity (ln)” value is reported as 10.46 ± 0.05. In the case of “AAAAAAATCACATAAAATACTTTATTTTATATTATA [GTGCAC_negctrl_site372]”, the “gcPBM binding intensity (ln)” value is reported as 8.24 ± 0.47. With “TATATTTCTTATTTCTTATTTTGTCATCACCTTTTT [CACACA_negctrl_site1115]” the “gcPBM binding intensity (ln)” value was 8.82 ± 0.54.
